# The supplement of paper PMC8728848
# Some of the results follow.
# B1: Epa15 (Candida glabrata) (protein)
# chain: MGSSHHHHHHSSGLVPRGSHMASDPTTFPLGCSPEFTKTKKGLSMELYRYDYLPPGSYPCWDSAYLNPSYPRTGYKAKKLIATVDGVSGDINFKFNPKFGCKAIPDYLPSNFNYHEPITITNFTMILYGYFMPKTTAFHTFYVTADDLLFMNFGAGNAFDCCRREETADKFGNYAAYSVWGKKSLKNELTVYLHTGVYYPIRLFYNNRDYIAQLDIRFKTEHSNAIITNFTDYFYSVDDSSLGCPGLI
# Assays:
# Experiment in all cases: glycan array binding signal (z-score within array); higher = stronger binding
# Settings in all cases: glycan notation: IUPAC condensed, linker removed
# [1] = target: Gal3S(b1-4)[Fuc(a1-3)]GlcNAc
# Outline: (§1)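 Negative Z-scores can be read as non-binding. The Z-score is calculated within each array and then averaged across arrays of one protein sequence at different concentrations or buffers and across linkers. Arrays, 3228 in all, were curated from the Consortium for Functional Glycomics database and kept only where the protein sequence was available.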
# [2] = target: Gal3S(b1-4)[Fuc(a1-3)]GlcNAc6S
# Outline: as §1
# [3] = target: Gal3S4S(b1-4)GlcNAc
# Outline: as §1
# [4] = target: Gal3S6S(b1-4)GlcNAc
# Outline: as §1
# [5] = target: Gal3S6S(b1-4)GlcNAc6S
# Outline: as §1
# [6] = target: Gal4S(b1-4)GlcNAc
# Outline: as §1
# [7] = target: Gal4S6S(b1-4)GlcNAc
# Outline: as §1
# [8] = target: Gal6P(b1-4)GlcNAc
# Outline: as §1
# [9] = target: Gal6S(b1-3)GlcNAc
# Outline: as §1
# [10] = target: Gal6S(b1-3)GlcNAc6S
# Outline: as §1
# [11] = target: Gal6S(b1-4)Glc
# Outline: as §1
# [12] = target: Gal6S(b1-4)Glc6S
# Outline: as §1
# [13] = target: Gal6S(b1-4)GlcNAc
# Outline: as §1
# [14] = target: Gal6S(b1-4)GlcNAc6S
# Outline: as §1
# [15] = target: GalNAc(a1-3)Gal
# Outline: as §1
# [16] = target: GalNAc(a1-3)GalNAc
# Outline: as §1
# [17] = target: GalNAc(a1-3)GalNAc(b1-3)Gal(a1-4)Gal(b1-4)Glc
# Outline: as §1
# [18] = target: GalNAc(a1-3)GalNAc(b1-3)Gal(a1-4)Gal(b1-4)GlcNAc
# Outline: as §1
# [19] = target: GalNAc(b1-3)Gal
# Outline: as §1
# [20] = target: GalNAc(b1-3)Gal(a1-4)Gal(b1-4)GlcNAc
# Outline: as §1
# [21] = target: GalNAc(b1-3)Gal(a1-4)Gal(b1-4)GlcNAc(b1-3)Gal(b1-4)Glc
# Outline: as §1
# [22] = target: GalNAc(b1-3)Gal(a1-6)Gal(b1-4)Glc
# Outline: as §1
# [23] = target: GalNAc(b1-3)GalNAc
# Outline: as §1
# [24] = target: GalNAc(b1-3)GlcNAc
# Outline: as §1
# [25] = target: GalNAc(b1-4)Gal(b1-4)Glc
# Outline: as §1
# [26] = target: GalNAc(b1-4)GlcNAc
# Outline: as §1
# [27] = target: GalNAc(b1-4)GlcNAc(b1-2)Man
# Outline: as §1
# [28] = target: GalNAc(b1-4)GlcNAc(b1-2)Man(a1-3)[GalNAc(b1-4)GlcNAc(b1-2)Man(a1-6)]Man(b1-4)GlcNAc(b1-4)GlcNAc
# Outline: as §1
# [29] = target: GalNAc(b1-4)GlcNAc(b1-3)GalNAc(b1-4)GlcNAc
# Outline: as §1
# [30] = target: GalNAc(b1-4)GlcNAc6S
# Outline: as §1
# [31] = target: GalNAc(b1-6)GalNAc
# Outline: as §1
# [32] = target: GalNAc3S(b1-4)GlcNAc
# Outline: as §1
# [33] = target: GalNAc3S(b1-4)GlcNAc3S
# Outline: as §1
# [34] = target: GalNAc3S(b1-4)[Fuc(a1-3)]GlcNAc
# Outline: as §1
# [35] = target: GalNAc4S6S(b1-4)GlcNAc
# Outline: as §1
# [36] = target: GalNAc6S(b1-4)GlcNAc
# Outline: as §1
# [37] = target: Glc(a1-4)Glc
# Outline: as §1
# [38] = target: Glc(a1-4)Glc(a1-4)Glc(a1-4)Glc
# Outline: as §1
# [39] = target: Glc(a1-6)Glc(a1-6)Glc
# Outline: as §1
# [40] = target: Glc(a1-6)Glc(a1-6)Glc(a1-6)Glc
# Outline: as §1
# [41] = target: Glc(b1-4)Glc
# Outline: as §1
# [42] = target: Glc(b1-6)Glc
# Outline: as §1
# [43] = target: GlcA(b1-3)Gal
# Outline: as §1
# [44] = target: GlcA(b1-3)GlcNAc
# Outline: as §1
# [45] = target: GlcA(b1-6)Gal
# Outline: as §1
# [46] = target: GlcA3S(b1-3)Gal(b1-4)GlcNAc(b1-2)Man
# Outline: as §1
# [47] = target: GlcA3S(b1-3)Gal(b1-4)GlcNAc(b1-3)Gal(b1-4)Glc
# Outline: as §1
# [48] = target: GlcNAc(a1-3)Gal(b1-4)GlcNAc
# Outline: as §1
# [49] = target: GlcNAc(a1-4)Gal(b1-3)GlcNAc
# Outline: as §1
# [50] = target: GlcNAc(a1-4)Gal(b1-4)GalNAc
# Outline: as §1
# [51] = target: GlcNAc(a1-4)Gal(b1-4)GlcNAc
# Outline: as §1
# [52] = target: GlcNAc(a1-4)Gal(b1-4)GlcNAc(b1-3)Gal(b1-4)Glc
# Outline: as §1
# [53] = target: GlcNAc(a1-4)Gal(b1-4)GlcNAc(b1-3)Gal(b1-4)GlcNAc
# Outline: as §1
# [54] = target: GlcNAc(a1-4)Gal(b1-4)GlcNAc(b1-3)Gal(b1-4)GlcNAc(b1-3)Gal(b1-4)GlcNAc
# Outline: as §1
# [55] = target: GlcNAc(a1-4)Gal(b1-4)GlcNAc(b1-3)Gal(b1-4)[Fuc(a1-3)]GlcNAc(b1-3)Gal(b1-4)[Fuc(a1-3)]GlcNAc
# Outline: as §1
# [56] = target: GlcNAc(a1-6)Gal(b1-4)GlcNAc
# Outline: as §1
# [57] = target: GlcNAc(b1-2)Gal(b1-3)GalNAc
# Outline: as §1
# [58] = target: GlcNAc(b1-2)Gal(b1-3)GlcNAc
# Outline: as §1
# [59] = target: GlcNAc(b1-2)Man(a1-3)[GlcNAc(b1-2)Man(a1-6)]Man(b1-4)GlcNAc(b1-4)GlcNAc
# Outline: as §1
# [60] = target: GlcNAc(b1-2)Man(a1-3)[GlcNAc(b1-2)Man(a1-6)]Man(b1-4)GlcNAc(b1-4)[Fuc(a1-6)]GlcNAc
# Outline: as §1
# [61] = target: GlcNAc(b1-2)Man(a1-3)[GlcNAc(b1-4)][GlcNAc(b1-2)Man(a1-6)]Man(b1-4)GlcNAc(b1-4)GlcNAc
# Outline: as §1
# [62] = target: GlcNAc(b1-2)Man(a1-3)[GlcNAc(b1-4)][GlcNAc(b1-2)Man(a1-6)]Man(b1-4)GlcNAc(b1-4)[Fuc(a1-6)]GlcNAc
# Outline: as §1
# [63] = target: GlcNAc(b1-2)[GlcNAc(b1-4)]Man(a1-3)[GlcNAc(b1-2)Man(a1-6)]Man(b1-4)GlcNAc(b1-4)GlcNAc
# Outline: as §1
# [64] = target: GlcNAc(b1-2)[GlcNAc(b1-4)]Man(a1-3)[GlcNAc(b1-4)][GlcNAc(b1-2)Man(a1-6)]Man(b1-4)GlcNAc(b1-4)GlcNAc
# Outline: as §1
# [65] = target: GlcNAc(b1-2)[GlcNAc(b1-4)]Man(a1-3)[GlcNAc(b1-4)][GlcNAc(b1-2)[GlcNAc(b1-6)]Man(a1-6)]Man(b1-4)GlcNAc(b1-4)GlcNAc
# Outline: as §1
# [66] = target: GlcNAc(b1-2)[GlcNAc(b1-4)]Man(a1-3)[GlcNAc(b1-4)][GlcNAc(b1-2)[GlcNAc(b1-6)]Man(a1-6)]Man(b1-4)GlcNAc(b1-4)[Fuc(a1-6)]GlcNAc
# Outline: as §1
# [67] = target: GlcNAc(b1-2)[GlcNAc(b1-6)]Man(a1-6)[GlcNAc(b1-2)Man(a1-3)]Man(b1-4)GlcNAc(b1-4)GlcNAc
# Outline: as §1
# [68] = target: GlcNAc(b1-2)[GlcNAc(b1-6)]Man(a1-6)[GlcNAc(b1-2)Man(a1-3)]Man(b1-4)GlcNAc(b1-4)[Fuc(a1-6)]GlcNAc
# Outline: as §1
# [69] = target: GlcNAc(b1-2)[GlcNAc(b1-6)]Man(a1-6)[GlcNAc(b1-4)][GlcNAc(b1-2)Man(a1-3)]Man(b1-4)GlcNAc(b1-4)GlcNAc
# Outline: as §1
# [70] = target: GlcNAc(b1-3)Fuc
# Outline: as §1
# [71] = target: GlcNAc(b1-3)Gal
# Outline: as §1
# [72] = target: GlcNAc(b1-3)Gal(b1-3)GalNAc
# Outline: as §1
# [73] = target: GlcNAc(b1-3)Gal(b1-4)Glc
# Outline: as §1
# [74] = target: GlcNAc(b1-3)Gal(b1-4)GlcNAc
# Outline: as §1
# [75] = target: GlcNAc(b1-3)Gal(b1-4)GlcNAc(b1-2)Man(a1-3)[GlcNAc(b1-3)Gal(b1-4)GlcNAc(b1-2)Man(a1-6)]Man(b1-4)GlcNAc(b1-4)GlcNAc
# Outline: as §1
binder,measurement,setting,value
B1,glycan array binding signal (z-score),[1],-0.5
same,glycan array binding signal (z-score),[2],-0.339
same,glycan array binding signal (z-score),[3],-0.528
same,glycan array binding signal (z-score),[4],-0.392
same,glycan array binding signal (z-score),[5],0.975
same,glycan array binding signal (z-score),[6],-0.451
same,glycan array binding signal (z-score),[7],-0.414
same,glycan array binding signal (z-score),[8],-0.465
same,glycan array binding signal (z-score),[9],2.78
same,glycan array binding signal (z-score),[10],0.488
same,glycan array binding signal (z-score),[11],1.17
same,glycan array binding signal (z-score),[12],4.58
same,glycan array binding signal (z-score),[13],1.8
same,glycan array binding signal (z-score),[14],10.6
same,glycan array binding signal (z-score),[15],-0.394
same,glycan array binding signal (z-score),[16],-0.348
same,glycan array binding signal (z-score),[17],-0.485
same,glycan array binding signal (z-score),[18],-0.529
same,glycan array binding signal (z-score),[19],-0.245
same,glycan array binding signal (z-score),[20],0.652
same,glycan array binding signal (z-score),[21],-0.13
same,glycan array binding signal (z-score),[22],-0.334
same,glycan array binding signal (z-score),[23],-0.576
same,glycan array binding signal (z-score),[24],-0.183
same,glycan array binding signal (z-score),[25],-0.393
same,glycan array binding signal (z-score),[26],-0.222
same,glycan array binding signal (z-score),[27],0.71
same,glycan array binding signal (z-score),[28],0.423
same,glycan array binding signal (z-score),[29],0.149
same,glycan array binding signal (z-score),[30],0.285
same,glycan array binding signal (z-score),[31],-0.579
same,glycan array binding signal (z-score),[32],-0.521
same,glycan array binding signal (z-score),[33],-0.363
same,glycan array binding signal (z-score),[34],-0.141
same,glycan array binding signal (z-score),[35],-0.327
same,glycan array binding signal (z-score),[36],-0.263
same,glycan array binding signal (z-score),[37],-0.44
same,glycan array binding signal (z-score),[38],-0.485
same,glycan array binding signal (z-score),[39],-0.471
same,glycan array binding signal (z-score),[40],-0.403
same,glycan array binding signal (z-score),[41],-0.408
same,glycan array binding signal (z-score),[42],-0.464
same,glycan array binding signal (z-score),[43],-0.333
same,glycan array binding signal (z-score),[44],-0.315
same,glycan array binding signal (z-score),[45],0.801
same,glycan array binding signal (z-score),[46],-0.474
same,glycan array binding signal (z-score),[47],-0.548
same,glycan array binding signal (z-score),[48],-0.491
same,glycan array binding signal (z-score),[49],-0.44
same,glycan array binding signal (z-score),[50],-0.429
same,glycan array binding signal (z-score),[51],-0.341
same,glycan array binding signal (z-score),[52],-0.392
same,glycan array binding signal (z-score),[53],-0.489
same,glycan array binding signal (z-score),[54],-0.452
same,glycan array binding signal (z-score),[55],0.9
same,glycan array binding signal (z-score),[56],0.881
same,glycan array binding signal (z-score),[57],-0.411
same,glycan array binding signal (z-score),[58],-0.273
same,glycan array binding signal (z-score),[59],-0.441
same,glycan array binding signal (z-score),[60],-0.322
same,glycan array binding signal (z-score),[61],-0.571
same,glycan array binding signal (z-score),[62],-0.557
same,glycan array binding signal (z-score),[63],-0.597
same,glycan array binding signal (z-score),[64],-0.577
same,glycan array binding signal (z-score),[65],-0.593
same,glycan array binding signal (z-score),[66],-0.367
same,glycan array binding signal (z-score),[67],-0.463
same,glycan array binding signal (z-score),[68],-0.396
same,glycan array binding signal (z-score),[69],-0.437
same,glycan array binding signal (z-score),[70],-0.548
same,glycan array binding signal (z-score),[71],-0.409
same,glycan array binding signal (z-score),[72],-0.444
same,glycan array binding signal (z-score),[73],-0.298
same,glycan array binding signal (z-score),[74],-0.4
same,glycan array binding signal (z-score),[75],-0.286
